# PubChem BioAssay AID1508642 (National Center for Advancing Translational Sciences (NCATS), 2021)
# Screen size: about 43,000 compounds; about 200 (0.47%) were called active. Roughly 12% stayed inconclusive and do not appear here. Calls come from the whole dose curve; as a rule, active = well fitted cell-killing curve with a large enough effect; inconclusive = small, poorly fitted or top-dose-only effect, or effect the other way; inactive = flat fitted curve, though single readings scatter. The list shows a part of the results.
# Assay: Cell viability qHTS assay in S16 Pmp22-F2sN cells; note: nearly all actives have a fitted effect of over 65% in size
# Conditions: S16 Pmp22-F2sN Schwann cells viability, CellTiter-Glo, 24 h; series mostly up to 57.5 µM; activity change, negative = cytotoxicity: at the top concentration
# Summary of the method: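 Viability was measured by CellTiter-Glo luminescence (15 min, room temperature). This followed 24 h at 37 °C of compound exposure (23 nL pin transfer) in S16 Pmp22-F2sN Schwann cells, 500-1,000 per well.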
# % is set by controls: 0 for no effect and ±100 for the full control effect.
row,SMILES,"activity change, negative = cytotoxicity"
1,CC(C)CCOc1ccc(C(=O)NCC2OCCc3ccccc32)cc1 (stereo not drawn),inactive: -0.24%
2,CC(=O)c1ccc(N2CCN(S(=O)(=O)c3cc4[nH]c(=O)c(=O)[nH]c4cc3C)CC2)cc1,inactive: 5.09%
3,COc1ccccc1CNC(=O)C(=O)NCC(c1cccs1)S(=O)(=O)c1ccccc1 (stereo not drawn),inactive: -9.06%
4,CCc1nnc(NC(=O)c2cc(=O)c3cc(C)ccc3o2)s1,inactive: 4%
5,Cc1ccc(C)c(N2CCN(C(=O)Cn3cnc4onc(-c5ccc(F)cc5)c4c3=O)CC2)c1,inactive: 13.2%
6,CC(=O)Nc1ccc(/C=C/c2noc(-c3ccccc3O)n2)cc1,inactive: 1.55%
7,CCOC(=O)CSc1nc(-c2ccc(OCC)cc2)cc(C(F)(F)F)c1C#N,inactive: -1.2%
8,Cc1ccc2oc(=O)c3cc(C(=O)NCCCOC(C)C)sc3c2c1,inactive: 7.51%
9,COc1cccc(NC(=O)c2cccc3c(=O)c4c([nH]c23)CCCC4)c1,inactive: -15.7%
10,COc1ccc(C(=O)c2oc3ccccc3c2NC(=O)c2cc(=O)c3ccc(C)cc3o2)cc1Cl,inactive: 2.31%
11,Cc1ccc(S(=O)(=O)CC(=O)Nc2nc3c(C)cc(C)cc3s2)cc1,inactive: 9.8%
12,Cc1cccc(C(=O)Nc2nnc(S(=O)(=O)N(C)Cc3ccccc3)s2)c1,inactive: -3.61%
13,CCOc1ccc(-c2cccc(NS(=O)(=O)c3ccc(F)cc3F)c2)nn1,inactive: -0.55%
14,COc1ccc(-c2noc(CNC(=O)c3ccccc3Br)n2)cc1,inactive: -4.06%
15,COc1ccc(-c2nc3c(c(SCC(=O)N4CCCCC4)n2)Cc2cc(C)ccc2O3)cc1,inactive: -5.15%
16,Cc1ccc(S(=O)(=O)NCC(c2ccco2)N2CCOCC2)cc1 (stereo not drawn),inactive: 8.78%
17,O=S(=O)(c1cccc(Cl)c1)c1nnn2c1nc(NCc1ccc3c(c1)OCO3)c1sccc12,inactive: -7.11%
18,CCOc1ccc2ncc3c(-c4ccc(C)cc4)nn(-c4cccc(F)c4)c3c2c1,inactive: -1.54%
19,CCOc1ccc(OCC)c(NC(=O)c2cc(S(=O)(=O)N3CCc4ccccc43)cn2C)c1,inactive: -14.4%
20,CCOC(=O)c1c(NC(=O)Cc2coc3cc(C)cc(C)c23)sc2c1CCC2,inactive: 2.89%
21,CC(=O)c1ccc(NC(=O)c2cc(C)nn2-c2ccccc2)cc1,inactive: 7.76%
22,COCCN(CCOC)S(=O)(=O)c1ccc(C(=O)Nc2sc3c(c2C(=O)OC)CCN(C)C3)cc1,inactive: 16.9%
23,CCN(CC)S(=O)(=O)c1cccc(C(=O)Nc2ccccc2C(=O)Nc2ccc(Cl)cc2)c1,inactive: -20.4%
24,Cc1ccc(-n2c(/C=C/c3c(C)n(C)c4ccccc34)nc3ccccc3c2=O)cc1,inactive: 7.4%

row,SMILES,"activity change, negative = cytotoxicity"
1,Cc1ccc(C)c(NS(=O)(=O)c2cc3c(cc2C)n(C)c(=O)c(=O)n3C)c1,inactive: -16.5%
2,Cc1cccc(-n2c(C)cc(C(=O)C(=O)Nc3ccccc3F)c2C)c1C,inactive: -2.15%
3,O=c1[nH]c(SCc2c(F)cccc2Cl)nc2c1CCC2,inactive: 3.39%
4,CCOc1cccc(C(=O)Nc2ccc(-c3nc4ncccc4o3)cc2C)c1,inactive: -7.21%
5,CCOC(=O)c1ccccc1NC(=O)c1sc2nc3n(c(=O)c2c1C)CCCCC3,inactive: 28.2%
6,CN(C)S(=O)(=O)N(CC(=O)NCCSCc1c(F)cccc1Cl)c1ccccc1,inactive: -5.74%
7,COC(=O)c1c(NC(C)=O)c2c3c(sc2n1Cc1cc(C)ccc1C)CCCC3,inactive: -10.9%
8,CCN(CC)CCNC(=O)C1CCN(C(=O)c2cnn(-c3ccccc3)c2-n2cccc2)CC1,inactive: 27.9%
9,CCc1cccc(NC(=O)Cn2c(C(=O)OC)cc3sc(Cl)cc32)c1,inactive: 1.62%
10,CCCCOc1ccc(C2c3c(oc4ccc(C)cc4c3=O)C(=O)N2CCCN(C)C)cc1OCC (stereo not drawn),inactive: 1.55%
11,CC(=O)NCCNC(=O)CCCn1c(=O)[nH]c2ccsc2c1=O,inactive: 4.97%
12,Cc1ccc(NC(=O)CSc2nc(=O)cc(N)n2-c2ccccc2)cc1,inactive: 0.0658%
13,Cc1ccc2nc(NC(=O)CSc3[nH]c(=O)ncc3C)sc2c1,inactive: 8.69%
14,Cc1ccc2c(CNC3CCCCC3)c(C(=O)O)n(Cc3ccc(F)cc3)c2c1,inactive: 24.4%
15,COCCNC(=O)c1ccc2c(c1)N(Cc1cc(C)ccc1C)C(=O)c1ccccc1S2=O (stereo not drawn),inactive: 4.49%
16,Cc1ccc2nc(COc3cccc(NC(=O)Nc4ccc(C)c(Cl)c4)c3)cc(=O)n2c1,inactive: 11.2%
17,CC(=O)c1cccc(NC(=O)c2sc(-n3nc(C)c(Cc4ccccc4)c3C)nc2C)c1,inactive: 1.22%
18,CCCS(=O)(=O)N1CC(=O)N(c2cccc(Cl)c2)C(C)(C(=O)NC2CCCCC2)C1 (stereo not drawn),inactive: 0.382%
19,Cc1cc(=O)[nH]c2nnc(SCc3ccc(Cl)cc3Cl)n12,inactive: -16.7%
20,O=C(Nc1ccc(F)c(Cl)c1)c1ccc2c(Cl)c3c(nc2c1)CCCC3,inactive: 10.6%
21,CCOc1ccccc1CNC(=O)c1cc2c(=O)n(Cc3cccnc3)ccc2nc1C,inactive: 4.05%
22,COc1cccc2cc(-c3nc(-c4ccccc4F)no3)c(=O)oc12,inactive: 0.125%
23,Cc1cc(C)cc(-n2c(SCC(=O)Nc3ccccc3)nc3c(oc4ccccc43)c2=O)c1,inactive: 1.17%
24,CCOc1ccc2nc(NC(=O)c3nc(SCc4ccccc4F)ncc3Cl)sc2c1,inactive: 1.29%
